# Measured values as given in the supplement of paper PMC8728848.
# This is one part of the list.
# B1: AT1G15820(2) (Arabidopsis thaliana), Q9LMQ2 (protein)
# chain: MAMAVSGAVLSGLGSSFLTGGKRGATALASGVGTGAQRVGRKTLIVAAAAAQPKKSWIPAVKGGGNFLDPEWLDGSLPGDFGFDPLGLGKDPAFLKWYREAELIHGRWAMAAVLGIFVGQAWSGVAWFEAGAQPDAIAPFSFGSLLGTQLLLMGWVESKRWVDFFNPDSQSVEWATPWSKTAENFANYTGDQGYPGGRFFDPLGLAGKNRDGVYEPDFEKLERLKLAEIKHSRLAMVAMLIFYFEAGQGKTPLGALGL
# Experiments:
# Test in all cases: glycan array binding signal (z-score within array); higher = stronger binding
# Details in all cases: glycan notation: IUPAC condensed, linker removed
# [1] = target: Man(a1-3)[Man(a1-6)]Man(a1-6)[Man(a1-2)Man(a1-3)]Man(b1-4)GlcNAc(b1-4)GlcNAc
# Method in brief: (§1)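 The binding signal is a Z-score computed within each array. Data were drawn from 3228 arrays in the Consortium for Functional Glycomics database, restricted to those with a known protein sequence. Scores were averaged over arrays of the same protein sequence at different concentrations or buffers, and over linkers, and negative values can be taken as non-binding.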
# [2] = target: Man(a1-3)[Man(a1-6)]Man(a1-6)[Man(a1-3)]Man
# Method in brief: as §1
# [3] = target: Man(a1-3)[Man(a1-6)]Man(a1-6)[Man(a1-3)]Man(b1-4)GlcNAc(b1-4)GlcNAc
# Method in brief: as §1
# [4] = target: Man(a1-3)[Man(a1-6)]Man(b1-4)GlcNAc(b1-4)GlcNAc
# Method in brief: as §1
# [5] = target: Man(a1-3)[Man(a1-6)]Man(b1-4)GlcNAc(b1-4)[Fuc(a1-6)]GlcNAc
# Method in brief: as §1
# Man(a1-6)Man = target: Man(a1-6)Man
# Method in brief: as §1
# Man(b1-4)GlcNAc = target: Man(b1-4)GlcNAc
# Method in brief: as §1
# MurNAc(b1-4)GlcNAc = target: MurNAc(b1-4)GlcNAc
# Method in brief: as §1
# Neu5Ac(a2-3)Gal = target: Neu5Ac(a2-3)Gal
# Method in brief: as §1
# [6] = target: Neu5Ac(a2-3)Gal(b1-3)GalNAc
# Method in brief: as §1
# [7] = target: Neu5Ac(a2-3)Gal(b1-3)GalNAc(b1-3)Gal(a1-4)Gal(b1-4)Glc
# Method in brief: as §1
# [8] = target: Neu5Ac(a2-3)Gal(b1-3)GalNAc(b1-4)[Neu5Ac(a2-3)]Gal(b1-4)Glc
# Method in brief: as §1
# [9] = target: Neu5Ac(a2-3)Gal(b1-3)GalNAc(b1-4)[Neu5Ac(a2-8)Neu5Ac(a2-3)]Gal(b1-4)Glc
# Method in brief: as §1
# [10] = target: Neu5Ac(a2-3)Gal(b1-3)GalNAc6S
# Method in brief: as §1
# [11] = target: Neu5Ac(a2-3)Gal(b1-3)GlcNAc
# Method in brief: as §1
# [12] = target: Neu5Ac(a2-3)Gal(b1-3)GlcNAc(b1-2)Man
# Method in brief: as §1
# [13] = target: Neu5Ac(a2-3)Gal(b1-3)GlcNAc(b1-2)Man(a1-3)[GlcNAc(b1-4)][Neu5Ac(a2-3)Gal(b1-3)GlcNAc(b1-2)Man(a1-6)]Man(b1-4)GlcNAc(b1-4)GlcNAc
# Method in brief: as §1
# [14] = target: Neu5Ac(a2-3)Gal(b1-3)GlcNAc(b1-2)Man(a1-3)[Neu5Ac(a2-3)Gal(b1-3)GlcNAc(b1-2)Man(a1-6)]Man(b1-4)GlcNAc(b1-4)GlcNAc
# Method in brief: as §1
# [15] = target: Neu5Ac(a2-3)Gal(b1-3)GlcNAc(b1-3)Gal(b1-3)GlcNAc
# Method in brief: as §1
# [16] = target: Neu5Ac(a2-3)Gal(b1-3)GlcNAc(b1-3)Gal(b1-4)GlcNAc
# Method in brief: as §1
# [17] = target: Neu5Ac(a2-3)Gal(b1-3)GlcNAc(b1-3)GalNAc
# Method in brief: as §1
# [18] = target: Neu5Ac(a2-3)Gal(b1-3)GlcNAc(b1-4)Gal(b1-4)Glc
# Method in brief: as §1
# [19] = target: Neu5Ac(a2-3)Gal(b1-3)GlcNAc(b1-6)GalNAc
# Method in brief: as §1
# [20] = target: Neu5Ac(a2-3)Gal(b1-3)GlcNAc6S
# Method in brief: as §1
# [21] = target: Neu5Ac(a2-3)Gal(b1-3)[Fuc(a1-4)]GlcNAc
# Method in brief: as §1
# [22] = target: Neu5Ac(a2-3)Gal(b1-3)[Fuc(a1-4)]GlcNAc(b1-3)Gal(b1-3)[Fuc(a1-4)]GlcNAc
# Method in brief: as §1
# [23] = target: Neu5Ac(a2-3)Gal(b1-3)[Fuc(a1-4)]GlcNAc(b1-3)Gal(b1-4)[Fuc(a1-3)]GlcNAc
# Method in brief: as §1
# [24] = target: Neu5Ac(a2-3)Gal(b1-3)[GlcNAc(b1-6)]GalNAc
# Method in brief: as §1
# [25] = target: Neu5Ac(a2-3)Gal(b1-3)[Neu5Ac(a2-6)]GalNAc
# Method in brief: as §1
# [26] = target: Neu5Ac(a2-3)Gal(b1-3)[Neu5Ac(a2-6)]GlcNAc(b1-3)[Fuc(a1-3)[Gal(b1-4)]GlcNAc(b1-6)]Gal(b1-4)Glc
# Method in brief: as §1
# [27] = target: Neu5Ac(a2-3)Gal(b1-3)]Neu5Ac(a2-3)Gal(b1-4)]GlcNAc
# Method in brief: as §1
# Neu5Ac(a2-3)Gal(b1-4)Glc = target: Neu5Ac(a2-3)Gal(b1-4)Glc
# Method in brief: as §1
# [28] = target: Neu5Ac(a2-3)Gal(b1-4)GlcNAc
# Method in brief: as §1
# [29] = target: Neu5Ac(a2-3)Gal(b1-4)GlcNAc(b1-2)Man
# Method in brief: as §1
# [30] = target: Neu5Ac(a2-3)Gal(b1-4)GlcNAc(b1-2)Man(a1-3)[GlcNAc(b1-4)][Neu5Ac(a2-3)Gal(b1-4)GlcNAc(b1-2)Man(a1-6)]Man(b1-4)GlcNAc(b1-4)GlcNAc
# Method in brief: as §1
# [31] = target: Neu5Ac(a2-3)Gal(b1-4)GlcNAc(b1-2)Man(a1-3)[Neu5Ac(a2-3)Gal(b1-4)GlcNAc(b1-2)Man(a1-6)]Man(b1-4)GlcNAc(b1-4)GlcNAc
# Method in brief: as §1
# [32] = target: Neu5Ac(a2-3)Gal(b1-4)GlcNAc(b1-2)Man(a1-3)[Neu5Ac(a2-3)Gal(b1-4)GlcNAc(b1-2)Man(a1-6)]Man(b1-4)GlcNAc(b1-4)[Fuc(a1-6)]GlcNAc
# Method in brief: as §1
# [33] = target: Neu5Ac(a2-3)Gal(b1-4)GlcNAc(b1-2)Man(a1-3)[Neu5Ac(a2-6)Gal(b1-4)GlcNAc(b1-2)Man(a1-6)]Man(b1-4)GlcNAc(b1-4)GlcNAc
# Method in brief: as §1
binder,measurement,setting,value
B1,glycan array binding signal (z-score),[1],-0.08
same,glycan array binding signal (z-score),[2],0.044
same,glycan array binding signal (z-score),[3],-0.356
same,glycan array binding signal (z-score),[4],-0.023
same,glycan array binding signal (z-score),[5],-0.001
same,glycan array binding signal (z-score),Man(a1-6)Man,0.556
same,glycan array binding signal (z-score),Man(b1-4)GlcNAc,0.001
same,glycan array binding signal (z-score),MurNAc(b1-4)GlcNAc,0.083
same,glycan array binding signal (z-score),Neu5Ac(a2-3)Gal,-0.34
same,glycan array binding signal (z-score),[6],-0.67
same,glycan array binding signal (z-score),[7],-0.239
same,glycan array binding signal (z-score),[8],-0.138
same,glycan array binding signal (z-score),[9],-0.113
same,glycan array binding signal (z-score),[10],-0.359
same,glycan array binding signal (z-score),[11],-0.216
same,glycan array binding signal (z-score),[12],-0.194
same,glycan array binding signal (z-score),[13],-0.409
same,glycan array binding signal (z-score),[14],-0.021
same,glycan array binding signal (z-score),[15],-0.526
same,glycan array binding signal (z-score),[16],-0.299
same,glycan array binding signal (z-score),[17],-0.486
same,glycan array binding signal (z-score),[18],-0.338
same,glycan array binding signal (z-score),[19],-0.075
same,glycan array binding signal (z-score),[20],-0.495
same,glycan array binding signal (z-score),[21],-0.367
same,glycan array binding signal (z-score),[22],0.497
same,glycan array binding signal (z-score),[23],-0.331
same,glycan array binding signal (z-score),[24],-0.351
same,glycan array binding signal (z-score),[25],0.346
same,glycan array binding signal (z-score),[26],0.231
same,glycan array binding signal (z-score),[27],0.533
same,glycan array binding signal (z-score),Neu5Ac(a2-3)Gal(b1-4)Glc,0.215
same,glycan array binding signal (z-score),[28],-0.087
same,glycan array binding signal (z-score),[29],0.776
same,glycan array binding signal (z-score),[30],-0.433
same,glycan array binding signal (z-score),[31],-0.363
same,glycan array binding signal (z-score),[32],-0.659
same,glycan array binding signal (z-score),[33],-0.086
